Results as given in paper PMC4336329 (PLoS ONE, 2015).
Screen size: about 310,000 compounds; about 2,200 (0.71%) showed an effect of 50% or more. Effects have a minus sign here. The list shows a part of the results.

Biological target: human ether-à-go-go-related gene (hERG) potassium channel (human, UniProt Q12809)
Experiment: primary screen, population patch clamp on CHO cells stably expressing hERG

human ether-à-go-go-related gene (hERG) potassium channel, sequence (Q12809 whole entry, looked up): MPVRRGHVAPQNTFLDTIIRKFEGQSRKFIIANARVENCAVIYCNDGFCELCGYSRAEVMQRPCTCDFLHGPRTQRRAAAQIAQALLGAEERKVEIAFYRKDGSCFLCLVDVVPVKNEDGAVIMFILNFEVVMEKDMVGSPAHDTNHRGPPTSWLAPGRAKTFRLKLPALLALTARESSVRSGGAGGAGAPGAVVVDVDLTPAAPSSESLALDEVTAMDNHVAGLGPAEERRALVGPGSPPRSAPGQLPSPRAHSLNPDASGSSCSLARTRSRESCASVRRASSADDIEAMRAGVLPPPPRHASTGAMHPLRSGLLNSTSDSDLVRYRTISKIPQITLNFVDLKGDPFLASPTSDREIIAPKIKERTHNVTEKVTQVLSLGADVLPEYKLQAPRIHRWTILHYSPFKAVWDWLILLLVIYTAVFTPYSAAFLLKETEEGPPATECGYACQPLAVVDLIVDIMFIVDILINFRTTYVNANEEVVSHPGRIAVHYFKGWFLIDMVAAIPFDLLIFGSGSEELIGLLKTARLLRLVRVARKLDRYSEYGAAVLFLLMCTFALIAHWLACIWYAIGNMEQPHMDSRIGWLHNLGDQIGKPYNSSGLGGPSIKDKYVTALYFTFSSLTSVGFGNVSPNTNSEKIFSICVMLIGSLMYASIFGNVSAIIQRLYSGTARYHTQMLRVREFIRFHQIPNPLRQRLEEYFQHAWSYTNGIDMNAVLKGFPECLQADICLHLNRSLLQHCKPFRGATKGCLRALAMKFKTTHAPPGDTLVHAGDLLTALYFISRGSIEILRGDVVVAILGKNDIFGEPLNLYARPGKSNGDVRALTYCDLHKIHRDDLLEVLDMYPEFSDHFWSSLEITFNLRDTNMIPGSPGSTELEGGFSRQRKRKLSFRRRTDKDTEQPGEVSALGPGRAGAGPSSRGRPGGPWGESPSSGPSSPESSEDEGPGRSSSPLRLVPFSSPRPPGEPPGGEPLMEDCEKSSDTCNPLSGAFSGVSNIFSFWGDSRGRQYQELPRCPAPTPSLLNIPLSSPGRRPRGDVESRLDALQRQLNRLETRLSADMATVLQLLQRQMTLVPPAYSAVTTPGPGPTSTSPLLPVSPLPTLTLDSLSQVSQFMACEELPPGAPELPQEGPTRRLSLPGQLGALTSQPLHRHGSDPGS

Going from CCCc1cc(=O)[nH]c(N2CCN(Cc3ccc4c(c3)OCO4)CC2)n1 to O=C(C1CCN(Cc2ccccc2O)CC1)N1CCN(Cc2ccc3c(c2)OCO3)CC1, the “hERG current change (%, negative = inhibition) at 1uM” value rises from 1.94% to 8.96%.

Compared with O=C(O)c1ccc(COc2c(F)c(F)c(F)c(F)c2F)o1, COc1cccc(CNC(=O)Cc2c(C(=O)O)[nH]c3ccccc23)c1 is higher in “hERG current change (%, negative = inhibition) at 1uM” value: -1.1% for the first, 9.07% for the second.

First: O=C(NCc1n[nH]c(=S)n1-c1ccc(Cl)c(Cl)c1)c1ccco1
Second: Cc1ccc2cccc(OCC(=O)NCc3ccco3)c2n1
The “hERG current change (%, negative = inhibition) at 1uM” value of the first is higher: 18.3% for the first, -14.3% for the second.

Compared with Cc1ccc(CNC(=O)COC(=O)C2CCN(S(=O)(=O)c3cccs3)CC2)cc1, CCOC(=O)C1CCN(S(=O)(=O)c2ccc(-c3ccc(=O)[nH]n3)o2)CC1 is lower in “hERG current change (%, negative = inhibition) at 1uM” value: -13.2% for the first, -22.4% for the second.

Going from O=c1n(-c2ccc(Br)cc2)cnn1-c1ncccc1[N+](=O)[O-] to O=C(OCC1CC(c2ccccn2)=NO1)c1ccc(Br)cc1 (centres unmarked), the “hERG current change (%, negative = inhibition) at 1uM” value rises from 7.74% to 10.8%.

Going from N#Cc1ccncc1Sc1ccc(Cl)cc1 to Nc1ccccc1C#Cc1cnccn1, the “hERG current change (%, negative = inhibition) at 1uM” value rises from 9.46% to 12%.

Going from COc1ccc(S(=O)(=O)NCC2CCC(C(=O)NCc3ccco3)CC2)cc1 (centres unmarked) to CC(=O)Nc1ccc(S(=O)(=O)Nc2ccc(NC(=O)c3ccco3)cc2)cc1, the “hERG current change (%, negative = inhibition) at 1uM” value falls from 16.1% to 8.53%.

Going from CC(C)OCCCNC(=O)c1sc(=S)n(C)c1N to CCCCNC(=O)Nc1ccccc1CC, the “hERG current change (%, negative = inhibition) at 1uM” value rises from 1.04% to 11.2%.

Going from O=C(O)Cn1c(SCCOc2ccccc2)nc2ccccc21 to O=C(COc1ccccc1)N1CCN=C1c1ccccc1, the “hERG current change (%, negative = inhibition) at 1uM” value falls from 4.29% to -41.6%.

Going from CCCCCN(C(=O)NC(=O)Nc1ccccc1C)S(C)(=O)=O to CS(=O)(=O)N(CC(=O)O)c1cccc(Cl)c1, the “hERG current change (%, negative = inhibition) at 1uM” value falls from 11.3% to 9.42%.

Going from CCN(CC)S(=O)(=O)c1ccc(Cl)c(NC(=O)COC(=O)c2cc(-c3ccccc3Cl)nc3ccccc23)c1 to CCOc1ccccc1NC(=O)C(OC(=O)c1ccc(N(C)C)cc1)c1ccccc1 (centres unmarked), the “hERG current change (%, negative = inhibition) at 1uM” value falls from 11.3% to 7.83%.

Compared with CN(C)C(=O)c1cc2cc(Br)ccc2s1, CCC(Sc1nc2ccc(C)cc2[nH]1)C(=O)O (centres unmarked) is higher in “hERG current change (%, negative = inhibition) at 1uM” value: 6.96% for the first, 9.83% for the second.

First: C/C(=N\NC(=O)c1nnn(-c2nonc2N)c1CN1CCc2ccccc21)c1ccccc1O
Second: CC1CCN(Cc2c(C(=O)N/N=C/c3ccc(C(C)C)cc3)nnn2-c2nonc2N)CC1
The “hERG current change (%, negative = inhibition) at 1uM” value of the first is higher: 15.2% for the first, 11.6% for the second.

First: CCN1C(=O)[C@H]2[C@@H](c3ccc(Cl)cc3)N3C(=O)CN(CC4CC4)C(=O)[C@@]3(Cc3ccccc3)[C@H]2C1=O
Second: O=C(NCc1ccc(F)cc1)C1CCC(=O)N1CCc1ccccc1 (centres unmarked)
The “hERG current change (%, negative = inhibition) at 1uM” value of the first is lower: -14% for the first, 1.76% for the second.

Compared with O=C(N/N=C/c1cn(-c2ccccc2)nc1-c1ccc(F)cc1)c1ccc(Br)o1, COC(=O)c1ccc(-n2c(C)nc(=O)c(-c3ccccc3)c2C)cc1 is lower in “hERG current change (%, negative = inhibition) at 1uM” value: 22.1% for the first, 9.49% for the second.

Going from O=C(CCc1nc(-c2ccccc2F)no1)NC1CCCCC1 to O=C(Nc1ccccc1Cl)NC1CCCCCCC1, the “hERG current change (%, negative = inhibition) at 1uM” value falls from 13.4% to 12.5%.

Compared with COc1ccc2nc(NC(=O)CCc3cc(OC)c(OC)c(OC)c3)sc2c1, COc1ccc(C(=O)NCCOc2ccccc2Cl)c(OC)c1OC is higher in “hERG current change (%, negative = inhibition) at 1uM” value: 6.05% for the first, 11.4% for the second.

Going from C/C(=N\Nc1nc(N2CCOCC2)nc(N2CCOCC2)n1)c1cccc([N+](=O)[O-])c1 to O=[N+]([O-])c1ccc(N2CCCC2)cc1N/N=C1\CN2CCC1CC2, the “hERG current change (%, negative = inhibition) at 1uM” value falls from 17.5% to 9.77%.

Going from CCOc1ccc2nc(SC3CC(=O)N(c4ccc(C)cc4)C3=O)sc2c1 (centres unmarked) to COc1cccc(CCNc2ccc(N3C(=O)CC(C)C3=O)cc2[N+](=O)[O-])c1 (centres unmarked), the “hERG current change (%, negative = inhibition) at 1uM” value rises from -9.93% to 13.7%.

Going from COc1ccccc1CC(=O)N1CCN(c2ccccc2F)CC1 to COc1ccc(C(=O)NC(=S)Nc2ccccc2N2CCOCC2)cc1Br, the “hERG current change (%, negative = inhibition) at 1uM” value rises from 4.18% to 11.9%.

Compared with CC(=O)Nc1ccc(/C=C2\CCc3ccccc3C2=O)cc1, Cc1cccc(CNC(=O)c2ccc(NC(=O)C3=CSCCO3)cc2)c1 is lower in “hERG current change (%, negative = inhibition) at 1uM” value: 11.9% for the first, -1.21% for the second.

Going from COc1ccc(-c2cc(C(=O)NCCCN3CCOCC3)c3ccccc3n2)cc1OC to Cc1ccc(-c2nnc(-c3ccccc3)c(N3CCOCC3)n2)cc1, the “hERG current change (%, negative = inhibition) at 1uM” value falls from 3.09% to 1.89%.

Going from O=C(c1ccccc1)N1CCCN(c2nccc(C(F)(F)F)n2)CC1 to CCOc1ccc(C(=O)NCC(=O)N2CCN(c3ccc(C(F)(F)F)cn3)CC2)cc1, the “hERG current change (%, negative = inhibition) at 1uM” value falls from 8.86% to 7.6%.

Compared with O=C(CCC(=O)c1ccc(F)cc1)NCC1(N2CCCCC2)CCCCC1, O=C(Nc1nc2ccc(C(=O)N3CCCCC3)cc2s1)C1CCCCC1 is higher in “hERG current change (%, negative = inhibition) at 1uM” value: -7.18% for the first, 11.3% for the second.

Compared with CC1(C)NC(=O)N(CC(=O)N2CCN(c3cccc(C(F)(F)F)c3)CC2)C1=O, Cc1nnc(SCC(=O)Nc2ccc(N3CCN(S(C)(=O)=O)CC3)cc2)o1 is lower in “hERG current change (%, negative = inhibition) at 1uM” value: 13.4% for the first, 11.3% for the second.

First: C=C1CCC[C@]2(C)C[C@H]3OC(=O)C(CNCCN(CC)CC)[C@H]3CC12.O=C(O)C(=O)O (some centres unmarked)
Second: CC1CN(CCCCOc2ccc(F)cc2)CC(C)O1.O=C(O)C(=O)O (centres unmarked)
The “hERG current change (%, negative = inhibition) at 1uM” value of the first is higher: 17.9% for the first, -4.39% for the second.

Compared with COc1ccc(S(=O)(=O)Nc2cccnc2)cc1OC, COc1ccc(C(C)C)cc1S(=O)(=O)Nc1ncn[nH]1 is higher in “hERG current change (%, negative = inhibition) at 1uM” value: 10.4% for the first, 23.7% for the second.

Compared with CCOc1ccc(OCCCC(=O)ON=C(N)c2ccccc2Cl)cc1, NC(=O)COC(=O)c1ccccc1Oc1ccccc1 is lower in “hERG current change (%, negative = inhibition) at 1uM” value: 12.7% for the first, 12.1% for the second.

Compared with CCOC(=O)c1c(NC(=O)CSc2nnc(-c3ccncc3)n2Cc2ccco2)sc(C)c1C, COc1ccc(NC(=O)CSc2nnc(C3CCCCC3)n2-c2ccccc2)cc1 is higher in “hERG current change (%, negative = inhibition) at 1uM” value: 5.8% for the first, 6.01% for the second.

First: N/C(CN1CCCC1=O)=N\OC(=O)c1ccccc1Cl
Second: O=C(COC(=O)C1CCC1)NCc1ccccc1Cl
The “hERG current change (%, negative = inhibition) at 1uM” value of the first is lower: 0.703% for the first, 20.3% for the second.

Compared with COCC(=O)Nc1nnc(CCc2ccccc2)s1, S=C(NCCc1ccccc1)Nc1ccccn1 is higher in “hERG current change (%, negative = inhibition) at 1uM” value: 2.38% for the first, 14.6% for the second.

Compared with CCCCCC(=O)Oc1cccc(N2C(=O)C3CCCCC3C2=O)c1 (centres unmarked), O=C(NCCOc1ccc(F)cc1)C1CCC(=O)N(CCN2CCOCC2)C1 (centres unmarked) is lower in “hERG current change (%, negative = inhibition) at 1uM” value: 17.9% for the first, 6.52% for the second.

Compared with Cc1cccc(Nc2nnc(SCC(=O)N(C)C3CCS(=O)(=O)C3)s2)c1C (centres unmarked), Cc1ccc(N2CC(C(=O)Nc3nnc(SCC(=O)N4CCOCC4)s3)CC2=O)cc1 (centres unmarked) is higher in “hERG current change (%, negative = inhibition) at 1uM” value: 1.93% for the first, 15.1% for the second.

Compared with CN(C(=O)CSc1nc(-c2ccccc2)cn1N)C(c1ccccc1)c1ccccc1, Cc1cccc2nc(-c3ccccc3)nc(N[C@@H](CO)c3ccccc3)c12 is lower in “hERG current change (%, negative = inhibition) at 1uM” value: 12% for the first, 7.16% for the second.

Compared with O=C(/C=C/c1ccco1)NC(=S)Nc1ccc(N2CCOCC2)c(Cl)c1, O=C(N/N=C/c1ccco1)C1CCCC1 is higher in “hERG current change (%, negative = inhibition) at 1uM” value: -1.05% for the first, 17.2% for the second.

Going from CC(C)(C)C(=O)CSc1nc2ncc(Br)cc2[nH]1 to Cc1nc2cc(-c3ccc(Br)cc3)[nH]n2c(=O)c1Cl, the “hERG current change (%, negative = inhibition) at 1uM” value rises from 3.68% to 18.6%.

Compared with Oc1ccc(C[C@H]2CNCCN2CCc2cc(C(F)(F)F)cc(C(F)(F)F)c2)cc1, Cc1nn2c(C(F)(F)F)c3c(nc2c1-c1ccccc1)CCC3 is higher in “hERG current change (%, negative = inhibition) at 1uM” value: -2.03% for the first, 12.7% for the second.

Going from Br.O=C(Cn1c(NCCCO)nc2ccccc21)c1ccc([N+](=O)[O-])cc1 to COC(=O)c1cn(NC(=O)c2ccncc2)c(=O)c2ccccc12, the “hERG current change (%, negative = inhibition) at 1uM” value rises from -3.14% to 5.07%.

First: Clc1ccc(-c2csc(N/N=C/c3ccc4c(c3)OCO4)n2)cc1
Second: O=c1ccc2cc(S(=O)(=O)N3CCN(c4ccc(Cl)cc4)CC3)ccc2o1
The “hERG current change (%, negative = inhibition) at 1uM” value of the first is higher: 1.89% for the first, -14.3% for the second.

Compared with CCOC(=O)C1(CCCc2ccccc2)CCN(C(=O)C(C)n2cncn2)CC1 (centres unmarked), O=S(=O)(c1ccccc1)N1CCN(CCO)CC1 is higher in “hERG current change (%, negative = inhibition) at 1uM” value: 0.0335% for the first, 8% for the second.

Going from C=C(C)[C@@H]1CC[C@]2(C(=O)O)CC[C@]3(C)[C@H](CC[C@@H]4[C@@]5(C)CC[C@H](O)C(C)(C)[C@@H]5CC[C@]43C)[C@@H]12 to CC1(C)Cc2c(cnn2-c2ccc(F)cc2)C(NC(=O)C2=NNC(=O)CC2)C1 (centres unmarked), the “hERG current change (%, negative = inhibition) at 1uM” value falls from 0.617% to -52.1%.

Going from Cc1cc(Sc2nc(NC(C)C)nc(NC(C)C)n2)nc(Cl)n1 to Cc1nc2sc3c(c2c(=O)[nH]1)CCCC3, the “hERG current change (%, negative = inhibition) at 1uM” value rises from -14% to 4.41%.

First: COC(=O)C(NC(C)=O)(Nc1ccc(Br)cc1)C(=O)OC
Second: COC(=O)C(NC(C)=O)(Nc1cccc(C)n1)C(F)(F)F (centres unmarked)
The “hERG current change (%, negative = inhibition) at 1uM” value of the first is higher: 21.5% for the first, 10.5% for the second.

First: COc1ccc(C)cc1CN1C(=O)c2ccccc2C1=O
Second: COc1ccc(N=CC2=C(O)CC(c3ccccc3)CC2=O)c(OC)c1 (centres unmarked)
The “hERG current change (%, negative = inhibition) at 1uM” value of the first is higher: 17.9% for the first, 7.88% for the second.

For CC1(C)CC(=O)C(C=NCC(O)c2ccccc2)=C(O)C1 (centres unmarked), the “hERG current change (%, negative = inhibition) at 1uM” value was 9.1%.
